Over roughly 33,000 sequences, “E-score (-0.5 to 0.5)” has its median near -0.012; the highest 2% begin near 0.29. The list shows a part of the results.
Each sequence was assayed against T1, Ybr033w (UniProt P38073) (assay: PBM E-score (8-mer binding enrichment) (E-score (-0.5 to 0.5)); higher = stronger / more preferred TF binding; most listed sequences are background and not binding sites). Conditions: protein concentration: 200 nM; construct: GST-full length.
T1 sequence: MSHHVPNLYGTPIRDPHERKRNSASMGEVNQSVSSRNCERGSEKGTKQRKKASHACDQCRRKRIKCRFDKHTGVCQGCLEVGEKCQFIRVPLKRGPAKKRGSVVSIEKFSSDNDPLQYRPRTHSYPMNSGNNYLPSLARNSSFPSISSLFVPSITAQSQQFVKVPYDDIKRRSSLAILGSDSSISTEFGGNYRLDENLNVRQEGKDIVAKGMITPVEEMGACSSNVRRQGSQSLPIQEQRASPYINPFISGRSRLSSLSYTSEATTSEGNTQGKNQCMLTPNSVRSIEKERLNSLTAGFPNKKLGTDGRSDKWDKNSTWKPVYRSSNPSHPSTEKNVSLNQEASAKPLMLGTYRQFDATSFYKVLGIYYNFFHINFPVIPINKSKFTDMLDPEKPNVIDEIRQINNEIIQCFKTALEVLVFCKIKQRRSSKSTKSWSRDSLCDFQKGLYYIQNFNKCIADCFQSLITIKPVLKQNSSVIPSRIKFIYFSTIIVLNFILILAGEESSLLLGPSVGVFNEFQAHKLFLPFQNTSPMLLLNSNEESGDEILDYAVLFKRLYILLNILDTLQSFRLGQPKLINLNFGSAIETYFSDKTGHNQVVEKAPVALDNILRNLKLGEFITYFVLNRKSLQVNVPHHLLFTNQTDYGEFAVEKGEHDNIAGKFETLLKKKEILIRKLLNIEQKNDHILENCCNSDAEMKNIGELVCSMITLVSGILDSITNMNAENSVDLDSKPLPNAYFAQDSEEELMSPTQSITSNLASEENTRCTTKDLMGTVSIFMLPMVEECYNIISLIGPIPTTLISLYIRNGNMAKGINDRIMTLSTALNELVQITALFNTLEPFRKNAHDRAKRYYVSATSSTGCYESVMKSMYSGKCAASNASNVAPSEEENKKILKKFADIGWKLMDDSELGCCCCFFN
Protocol: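 Universal 'all 10-mer' protein binding microarrays (Agilent AMADID 015681) probed with GST-tagged S. cerevisiae TFs (full-length or DBD) made by in vitro transcription/translation (PURExpress), about 100-200 nM. Bound TF was detected with fluorescent anti-GST. Each ungapped 8-mer (which stands for itself and its reverse complement) is scored by the PBM enrichment score (E-score), a modified Wilcoxon-Mann-Whitney statistic from -0.5 to +0.5, computed with the Universal PBM Analysis Suite. Scale: above 0.35 generally sequence-specific binding.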

Sequence | PBM E-score
CTGCAACC | -0.244
CGTGCTGC | -0.144
AATAGATG | 0.193
GTTAGTTA | 0.262
ACACTCGA | -0.0986
GCCGAGCC | -0.0852
AGAGGCGG | -0.093
CTACCCGA | 0.0953
ATGACCGA | -0.0258
GGTACCAA | -0.137
ATTTTCTA | 0.264
AAAAGTTC | 0.373
CGGGCACC | -0.106
AAACTCTG | 0.0435
CCCTAGGC | -0.0718
GGACCTTA | -0.226
CGTACTAG | 0.0511
TAGTGAAA | 0.0868
AGGGTCGG | -0.164
CGGGTATA | 0.0469
AGAGCACT | 0.155
TATACCCA | -0.16
ATGCGTAA | 0.116
CCCTTGCG | -0.205
AGTGTATC | 0.0453

Sequence | PBM E-score
CGCAAGTC | -0.213
AGTCCCCG | -0.202
AGTGAGAT | 0.0696
AATTGATC | 0.354
CATAAGGG | -0.115
CCGCTGGC | -0.209
GAAACACC | 0.127
AGCCTATA | 0.0186
GCCCACTA | -0.0889
GGACCAGA | -0.0563
GGTCTAAA | 0.0775
CTCCACCA | -0.122
ACATACGG | -0.112
TAAGACCA | -0.00263
CGAGCTGC | -0.149
ACTTTCTA | 0.135
GAAACAAC | 0.0455
TACAGGGA | -0.116
AAGCGACC | 0.152
CGTCGGAC | -0.256
AGAACTGG | 0.158
GGGGGCTA | -0.364
AACGACCA | 0.0134
AATACTGA | 0.106
AATGGCAT | 0.207

Sequence | PBM E-score
ATGCTTCA | 0.0658
GGAGGACA | -0.138
GGGACTAA | -0.0838
AAAGGTGC | -0.0591
AGCTGCTC | -0.124
ATCGTACC | -0.104
AAGTCCAA | 0.125
CAGCTTAC | 0.0422
GGTAGGCA | -0.228
AATTTCCA | 0.282
CACGCAAA | 0.073
AGGTAGAA | 0.0484
AAAAGGGC | -0.00447
CGAGTTGA | 0.0834
GCGCATCA | 0.0276
GCACGGAA | -0.0633
GCTCCCAC | -0.0972
CAAACTAC | 0.122
AGCTGCCA | -0.135
CGTTCCGC | -0.00657
CCAGATCG | -0.0568
CGCAACAG | -0.0758
CCCACTTA | 0.0404
ACATAGAA | -0.0174
ATTTTCAA | 0.229

Sequence | PBM E-score
CAGCGGAC | -0.128
AAGACAAA | 0.143
ATACCTCA | 0.229
ATTACAAC | 0.129
CTTTGATC | -0.0123
CACTAAAG | 0.145
TAAAGGTA | 0.0512
CTGGATTC | 0.00016
CAGCCCTG | -0.325
ACTTCCTC | 0.00724
TCCCGTAA | -0.0379
CGACGCAG | -0.195
GCTGAAGA | 0.0474
AACTGCAC | 0.223
AACAGCTG | 0.104
AGAGAAAG | 0.0568
CAATCCGG | 0.0149
ATTGCTCA | 0.148
CAGCTACC | -0.0776
AGATTGTG | 0.0549
ATTTGCTC | 0.124
TCTCGACA | 0.0966
CACCTAAC | -0.0488
CTGGTTTA | 0.0565
GCTTTCGA | -0.0195

Sequence | PBM E-score
AGTACACA | 0.157
CCACTTCG | -0.0158
CAACTGTA | 0.0201
CCCGAGGA | -0.0344
ATGTCAGG | -0.189
ATTGTTTC | 0.199
CTTTGATA | 0.196
AGGAGGAG | -0.213
CGGTGTTC | -0.0747
AAAGCCCC | -0.244
CTTGTCTC | -0.172
CAAGATTA | 0.185
CTCTGTGC | -0.186
CAAAAGAA | 0.252
CCATGCTC | -0.286
CAAAGCAG | 0.0445
AGGGGCGC | -0.279
AAACTTTC | 0.0756
AAGGAGCC | -0.0981
ACTTATAT | 0.328
ATCTTTAA | 0.299
ACAGGCGT | -0.24
CGCTTGAA | 0.133
ATACATGG | 0.143
CAATCCCA | -0.15

Sequence | PBM E-score
ACGTGAGG | -0.105
ATTAATGA | 0.354
ATCAGAGG | -0.123
AAACAATC | 0.234
AAGTCGGC | -0.18
AATTTACG | 0.232
ACCAGTCG | 0.0889
ATCGTGTC | -0.0353
CAGAGAAA | 0.142
GCTCACAC | -0.12
GGTACGAA | 0.0855
AGGCGAAT | -0.0337
ATGCTGGG | -0.179
GAGATGCA | -0.00763
ATCTTGGA | 0.103
ACTCTAGA | 0.0991
CATGCCCA | -0.207
ACGAAAGG | -0.00916
CCCTAATC | -0.211
ACACTCAT | 0.114
ACGAAGTC | -0.0462
GCGGCCGC | -0.174
AGCGTGTG | 0.0219
CAACGACG | 0.116
ATAAACGA | 0.227

Sequence | PBM E-score
GCATGGAC | -0.154
CTGAATCA | 0.0662
CAGACCGG | -0.163
CGAGACAC | -0.0369
AGGCCAAC | -0.12
GTTGTTTA | 0.267
CCGGCACA | -0.251
ATATAAAA | 0.242
AGAGGCCG | -0.297
ACGGTTTA | -0.107
ACTTATCT | 0.204
ATTGATGC | 0.145
CGATCGAG | -0.101
GCATAACA | 0.13
CACGAGAA | 0.0144
CCATCGGA | -0.191
CTCGTGAA | 0.0404
GACCTAGC | -0.16
GCGGTTAA | 0.0391
GTGAACGA | -0.047
GCTTTTAC | 0.0781
AACGTAAA | 0.203

Reference: the supplement of paper PMC3334620
